According to PubChem BioAssay AID360 (National Center for Advancing Translational Sciences (NCATS), 2006):
The whole screen tested about 48,000 compounds, of which about 550 (1.1%) were called active. Roughly 4% stayed inconclusive and do not appear here. Cut-off read from the data, not from the text of the source: active = potency below about 15 µM; inconclusive = mostly about 16 µM to 33 µM; inactive = weaker than that. The list shows a part of the results.

biological target: Lysosomal acid glucosylceramidase (Homo sapiens) (UniProt P04062); test: Glucocerebrosidase; conditions: purified enzyme, resorufin glucoside fluorescence (screen aimed at inhibitors), 20 min; series mostly up to 77 µM;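 note: the screen sought inhibitors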
UniProt P04062, sequence (P04062 whole entry, looked up): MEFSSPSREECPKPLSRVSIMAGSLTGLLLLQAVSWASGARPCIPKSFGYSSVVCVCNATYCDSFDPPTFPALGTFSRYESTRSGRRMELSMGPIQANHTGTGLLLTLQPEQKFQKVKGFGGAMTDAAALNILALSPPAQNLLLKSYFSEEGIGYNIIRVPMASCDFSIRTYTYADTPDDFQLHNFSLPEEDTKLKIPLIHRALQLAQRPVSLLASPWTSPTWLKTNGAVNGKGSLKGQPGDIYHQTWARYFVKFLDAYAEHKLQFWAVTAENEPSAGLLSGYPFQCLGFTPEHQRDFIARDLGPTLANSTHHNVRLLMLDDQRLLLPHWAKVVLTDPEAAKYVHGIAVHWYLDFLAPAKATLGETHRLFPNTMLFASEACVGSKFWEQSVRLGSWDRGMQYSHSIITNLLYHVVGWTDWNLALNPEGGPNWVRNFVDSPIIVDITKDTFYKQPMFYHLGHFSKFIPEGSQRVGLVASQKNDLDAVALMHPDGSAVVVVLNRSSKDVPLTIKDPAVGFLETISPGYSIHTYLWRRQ
Method in brief: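 Normal human glucocerebrosidase (0.2 nM final) was assayed with resorufin β-D-glucopyranoside (30 uM final) in 50mM citric acid/KH2PO4, 10mM sodium taurocholate, 0.01% tween-20, pH 5.9. Compounds were titrated; fluorescence (Ex 548, Em 600) read after 20 min at RT.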
Potency is the fitted concentration of half-maximal effect.

Potency, inactive:
Cc1nc(SCC(=O)c2c[nH]c3ccccc23)n[nH]1 > 76.9 µM
Cn1c(SCCS(=O)(=O)c2ccc(Cl)cc2)nnc1-c1ccccc1 > 76.9 µM
Cc1nnc(SCCN2CCOCC2)n1-c1cccc(Cl)c1 > 76.9 µM
O=C(COc1ccc(S(=O)(=O)NCCc2ccccc2)cc1)N1CCCC1 > 76.9 µM
CCOC(=O)C1CCN(C(=O)c2ccc(NC(=O)C3CCCO3)cc2)CC1 (configuration not stated) > 76.9 µM
O=C(CSc1nnc(-c2ccco2)n1-c1ccccc1)NCc1ccc2c(c1)OCO2 > 76.9 µM
Cn1c(C(=O)N2CCc3ccccc32)cc2c(=O)n3ccccc3nc21 > 76.9 µM
CCOC(=O)C1CCN(C(=O)c2cc(OCC)c(OCC)c(OCC)c2)CC1 > 76.9 µM
c1ccc(CCc2nn3c(Cc4ccccc4)nnc3s2)cc1 > 76.9 µM
O=C1c2ccccc2C(=O)N1CCOCCN1C(=O)c2ccccc2C1=O > 76.9 µM
COc1ccc(N(C(=O)c2ccco2)S(=O)(=O)c2cc(OC)ccc2OC)cc1 > 76.9 µM
Cn1c(SCC(=O)Nc2nccs2)nnc1-c1ccncc1 > 76.9 µM
O=C(C1CCN(S(=O)(=O)N2CCOCC2)CC1)N1CCN(Cc2ccc3c(c2)OCO3)CC1 > 76.9 µM
CSc1nncc(-c2ccc(F)cc2)n1 > 76.9 µM
O=C(c1ccc(F)cc1)N1CCCCC(Sc2nnc3ccccn23)C1=O (configuration not stated) > 76.9 µM
O=C(CCS(=O)(=O)c1ccc(Cl)cc1)OCC(=O)N1CCCCC1
CCCCn1c(N)c(N(CCC(C)C)C(=O)COC(=O)c2ccco2)c(=O)[nH]c1=O > 76.9 µM
CCOC(=O)N1CCN(C(=O)c2cnn3c(C(F)F)cc(-c4ccc(C)cc4)nc23)CC1 > 76.9 µM
CCN(CC)C(=O)C1=C(C)NC(=O)NC1c1ccccc1F (configuration not stated) > 76.9 µM
O=C(CSc1nnc(-c2cccs2)n1-c1ccccc1)NCc1ccco1
Cc1cc(-c2ccco2)n(-c2ccccc2)n1 > 76.9 µM
N#Cc1ccc(CSc2nnc(-c3cccc(S(=O)(=O)N4CCCCC4)c3)o2)cc1 > 76.9 µM
CCSc1nnc(-c2ccccc2NC(=O)CC)c(=O)[nH]1 > 76.9 µM
O=C(NCCc1cn2ccccc2n1)c1ccccc1F > 76.9 µM
CCC(=Nc1ccc(N)cc1)C1=C(O)C(C(=O)OC)C(C)(C)CC1=O (configuration not stated) > 76.9 µM
O=C(OCc1cc2ccccc2[nH]c1=O)c1ccco1 > 76.9 µM
COc1cccc(CN2CCN(c3cccc(C(F)(F)F)c3)CC2)c1OC > 76.9 µM
CC1CC(C)CN(CCCNC(=O)Cc2c(C(=O)O)[nH]c3ccccc23)C1 (configuration not stated) > 76.9 µM
CCOc1ccc(C2C(=O)N(C3CCCCC3)CC(=O)N2CC2CCCO2)cc1OC (configuration not stated) > 76.9 µM
O=C(O)C1CCN(S(=O)(=O)c2ccc(Oc3ccccc3)cc2)CC1 > 76.9 µM
CCCCCC(=O)N(CN1C(=O)CCC1=O)c1ccccc1 > 76.9 µM
O=C(Nc1ccccc1Cl)N1CCN(c2ncccn2)CC1 > 76.9 µM
COc1ccc(S(=O)(=O)Nc2ccc(CC#N)cc2)cc1 > 76.9 µM
CCn1c(COc2ccc(C)cc2)nnc1SCC(=O)Nc1ccc(S(N)(=O)=O)cc1 > 76.9 µM
C=CCn1c(SCc2ccc(C(=O)OC)cc2)nnc1-c1sc(N)nc1C > 76.9 µM
COc1ccc(OC)c(NC(=O)Cn2c(CCC(=O)O)ccc2-c2cccs2)c1 > 76.9 µM
O=C(Nc1ccccc1)c1ccc(S(=O)(=O)NCC2CCCO2)cc1 (configuration not stated) > 76.9 µM
COc1ccccc1NC(=O)CC(=O)CSc1nnc(-c2ccc(C)cc2)n1C > 76.9 µM
COc1cc(NS(=O)(=O)N2CCCC2)cc(OC)c1OC > 76.9 µM
N#CCCN(C(=O)Nc1ccc(Cl)cc1)c1ccccc1 > 76.9 µM
Cc1cc(NCCN2CCOCC2)n2ncc(-c3ccc(Cl)cc3)c2n1
O=C(CCC1COc2ccccc2O1)Nc1ncccc1O (configuration not stated) > 76.9 µM
Cc1ccc(-c2cc(C(=O)NCc3cccnc3)no2)cc1 > 76.9 µM
N#Cc1nn(-c2ccccc2)nc1N1CCCCC1 > 76.9 µM
O=C(O)C1C2C=CC(C2)C1C(=O)NC1CCN(Cc2ccccc2)CC1 (configuration not stated) > 76.9 µM
CC(C)CCNC(=O)COc1ccc2c3c(c(=O)oc2c1)CCC3 > 76.9 µM
O=C(O)COc1ccc(C(=O)Cc2ccc3c(c2)OCCCO3)c(O)c1 > 76.9 µM
CCOCCn1c(N2CCN(c3ccccc3)CC2)nc2c1c(=O)n(C)c(=O)n2C > 76.9 µM
CSc1nnc(Cn2c(=O)sc3ccccc32)n1-c1cccc(Cl)c1 > 76.9 µM
CCC(=O)Nc1cccc(-c2cn3ccsc3n2)c1 > 76.9 µM
Cc1nc2nc[nH]n2c(=O)c1NC(=O)CCc1ccccc1 > 76.9 µM
O=C(NCCN1CCCC1)C1COc2ccccc2O1 (configuration not stated) > 76.9 µM
Cc1csc2nnc(N)n12 > 76.9 µM
O=C(CN1CCc2ccccc21)Nc1ccc2c(c1)OCO2 > 76.9 µM
COc1ccc(NC(=O)CSc2c(C)nn(-c3nnc(C)c(=O)[nH]3)c2C)cc1 > 76.9 µM
CCN(CC)CCNC(=O)Cn1cnc2sc(C)c(S(=O)(=O)N3CCOCC3)c2c1=O > 76.9 µM
COc1ccc(C(=O)Cn2c(N3CCOCC3)nc3c2c(=O)n(C)c(=O)n3C)cc1 > 76.9 µM
O=C(CN(Cc1cccs1)C(=O)CNS(=O)(=O)c1ccccc1)NCc1ccco1 > 76.9 µM
CCC(C(=O)NC1CCCC1)N(Cc1ccco1)C(=O)Cn1nnc(-c2ccc(C)cc2)n1 (configuration not stated) > 76.9 µM
O=C(Cn1c(=O)[nH]c2ccsc2c1=O)NC1CCCCC1 > 76.9 µM
Cc1cccc(NC(=O)c2ccc(S(=O)(=O)N(C)C)cc2)n1 > 76.9 µM
O=C(Nc1ccc(-n2nncc2-c2ccco2)cc1)c1cc2ccccc2oc1=O > 76.9 µM
CCC1CCCCN1C(=O)c1nn2cccnc2c1Cl (configuration not stated) > 76.9 µM
CN(C)c1oc(-c2ccccc2)nc1C#N > 76.9 µM
COc1ccc(N(CC(=O)NCc2cccs2)S(=O)(=O)c2c(C)n[nH]c2C)cc1 > 76.9 µM
COC(=O)c1cccc(NC(=O)CSc2nc3cccnc3n2C)c1 > 76.9 µM
c1ccc2c(c1)nc1n2CCS1 > 76.9 µM
CCOc1ccc(N2C(=O)CC(NCc3ccc(F)cc3)C2=O)cc1 (configuration not stated) > 76.9 µM
CCOc1ccc(-n2c(Cc3cc(=O)[nH]c(=O)[nH]3)nnc2SCC)cc1 > 76.9 µM
COc1ccc(-c2[nH]nc3c2C(c2ccc(OC(=O)N4CCOCC4)cc2)C(C#N)=C(N)O3)cc1 (configuration not stated) > 76.9 µM
Cc1csc(=Nc2c(C)n(C)n(-c3ccccc3)c2=O)n1Cc1ccccc1 > 76.9 µM
CN(Cc1ccco1)C(=O)C1CCC(=O)N1Cc1ccc(F)cc1 (configuration not stated) > 76.9 µM
CCC(Sc1nnc(-c2ccc(C)c(Cl)c2)n1CC)C(=O)Nc1nccs1 (configuration not stated) > 76.9 µM
Cc1[nH]c2c(Cl)cccc2c(=O)c1CN1CCCC1 > 76.9 µM
O=C(O)CCc1nc(-c2ccccc2)no1 > 76.9 µM
O=C(NCc1ccco1)NCC(F)(F)F > 76.9 µM
COC(=O)C1=C(CSc2nc3ccccc3o2)NC(=O)NC1c1cc(C)ccc1C (configuration not stated) > 76.9 µM
CCOc1ccc(-n2c(Cc3cc(=O)[nH]c(=O)[nH]3)nnc2SC(C)C)cc1 > 76.9 µM
COc1cccc(-n2ccnc2SCC(=O)Nc2ccccc2)c1 > 76.9 µM
Nc1cc(=O)[nH]c(=O)n1Cc1ccco1 > 76.9 µM
COP(C)(=O)c1c(C)nn(-c2ccccc2)c1C (configuration not stated) > 76.9 µM
O=C(CNC1CCCCCC1)Nc1ccc(S(=O)(=O)NC2CC2)cc1 > 76.9 µM
CCOC(=O)Cn1c(N)c(C(=O)OC)sc1=S
COc1ccc(C(=O)NCC(C)CN(C)C)cc1 (configuration not stated) > 76.9 µM
CCS(=O)(=O)Nc1ccc2c(c1)N(C(C)=O)c1ccccc1CC2 > 76.9 µM
Fc1ccc(-c2nnc3sc(C4COc5ccccc5O4)nn23)cc1 (configuration not stated) > 76.9 µM
Cc1ccc(NC(=O)COC(=O)Cn2c(C)csc2=O)cc1 > 76.9 µM
CCc1c(C)c2ccc(OCC(N)=O)cc2oc1=O > 76.9 µM
CC1CN(S(=O)(=O)c2cccc(C(=O)NCc3ccc4c(c3)OCO4)c2)CC(C)O1 (configuration not stated) > 76.9 µM
CC(=O)Cc1nsc(NC(=O)c2ccc(-c3cc(C(F)(F)F)ccc3Cl)o2)n1 > 76.9 µM
CCC1=NC(c2ccc(OC)cc2OC)N(O)C1(C)C (configuration not stated) > 76.9 µM
CC(=O)C(C(C)=O)c1c(Cl)c(O)c(O)c2c(C(=O)c3ccccc3)coc12 > 76.9 µM
